Measurements published in patent publication US11999759B2, “Boronic acid derivatives and therapeutic uses thereof” (Qpex Biopharma, Inc., priority 2016, dated 2024).
At least one read-out could not be matched to a standard name with certainty.

Tests used:
KP1010 (SHV-12) [1] = assay: Tigemonam potentiation (MPC@4), strain KP1010; conditions: minimum BLI concentration inhibiting growth with tigemonam at 4 ag/mL (so in the source); BLI up to 40
ec308 (SHV-5) [2] = assay: Tigemonam potentiation (MPC@4), strain ec308; format: cell-based; conditions: minimum BLI concentration inhibiting growth with tigemonam at 4 ag/mL (so in the source); BLI up to 40
EC1010 (CMY-6) = assay: Aztreonam potentiation (MPC@4), strain EC1010; conditions: minimum BLI concentration inhibiting growth with aztreonam at 4 μg/mL; BLI up to 40 μg/mL
AB1054 (OXA-23) = assay: Meropenem potentiation (MPC@8), strain AB1054; format: cell-based, Acinetobacter baumannii; conditions: minimum BLI concentration inhibiting growth with meropenem at 8 (MPC@8); BLI up to 20
KP1009 (CTX-M-15) [3] = assay: Aztreonam potentiation (MPC@4), strain KP1009; conditions: minimum BLI concentration inhibiting growth with aztreonam at 4 μg/mL; BLI up to 40 μg/mL
ec308 (SHV-5) [4] = assay: Aztreonam potentiation (MPC@4), strain ec308; conditions: minimum BLI concentration inhibiting growth with aztreonam at 4 μg/mL; BLI up to 40 μg/mL
KP1010 (SHV-12) [5] = assay: Aztreonam potentiation (MPC@4), strain KP1010; conditions: minimum BLI concentration inhibiting growth with aztreonam at 4 μg/mL; BLI up to 40 μg/mL
ec302 (TEM-10) [6] = assay: Aztreonam potentiation (MPC@4), strain ec302; conditions: minimum BLI concentration inhibiting growth with aztreonam at 4 μg/mL; BLI up to 40 μg/mL
ec302 (TEM-10) [7] = assay: Tigemonam potentiation (MPC@4), strain ec302; format: cell-based; conditions: minimum BLI concentration inhibiting growth with tigemonam at 4 ag/mL (so in the source); BLI up to 40
KP1009 (CTX-M-15) [8] = assay: Tigemonam potentiation (MPC@4), strain KP1009; conditions: minimum BLI concentration inhibiting growth with tigemonam at 4 ag/mL (so in the source); BLI up to 40
KP1005 (CTX-M-14) [9] = assay: Tigemonam potentiation (MPC@4), strain KP1005; conditions: minimum BLI concentration inhibiting growth with tigemonam at 4 ag/mL (so in the source); BLI up to 40
KP1005 (CTX-M-14) [10] = assay: Aztreonam potentiation (MPC@4), strain KP1005; conditions: minimum BLI concentration inhibiting growth with aztreonam at 4 μg/mL; BLI up to 40 μg/mL

Structure (SMILES)	TIG MPC4 SHV-12 KP1010 (KP1010 (SHV-12) [1])	TIG MPC4 SHV-5 ec308 (ec308 (SHV-5) [2])	AZT MPC4 CMY-6 EC1010 (EC1010 (CMY-6))	MPM MPC8 AB1054 OXA-23 (AB1054 (OXA-23))	AZT MPC4 CTX-M-15 KP1009 (KP1009 (CTX-M-15) [3])	AZT MPC4 SHV-5 ec308 (ec308 (SHV-5) [4])	AZT MPC4 SHV-12 KP1010 (KP1010 (SHV-12) [5])	AZT MPC4 TEM-10 ec302 (ec302 (TEM-10) [6])	TIG MPC4 TEM-10 ec302 (ec302 (TEM-10) [7])	TIG MPC4 CTX-M-15 KP1009 (KP1009 (CTX-M-15) [8])	TIG MPC4 CTX-M-14 KP1005 (KP1005 (CTX-M-14) [9])	AZT MPC4 CTX-M-14 KP1005 (KP1005 (CTX-M-14) [10])
O=C(O)c1c(F)ccc2c1OB(O)CC21CC1 [Compound 15, 8-fluoro-4,4-dihydroxy-spiro[5-oxa-4-boranuidabicyclo[4.4.0]deca-1(6),7,9-triene-2,1′-cyclopropane]-7-carboxylic acid]	X (X = MPC@4 ≤ 5 μg/mL)	X (X = MPC@4 ≤ 5 μg/mL)	X (X = MPC@4 ≤ 5 μg/mL)	X (X = MPC@1 ≤ 5 μg/mL)	X (X = MPC@4 ≤ 5 μg/mL)	X (X = MPC@4 ≤ 5 μg/mL)	X (X = MPC@4 ≤ 5 μg/mL)	X (X = MPC@4 ≤ 5 μg/mL)	Y (Y = 5 μg/mL < MPC@4 ≤ 20 μg/mL)	X (X = MPC@4 ≤ 5 μg/mL)	X (X = MPC@4 ≤ 5 μg/mL)	X (X = MPC@4 ≤ 5 μg/mL)
O=C(O)c1cccc2c1OB(O)[C@@H]1C[C@H]21 [Compound 16, (1aR,7bS)-2,2-dihydroxy-1a,7b-dihydro-1H-cyclopropa[c][1,2]benzoxaborinine-4-carboxylic acid]	X (X = MPC@4 ≤ 5 μg/mL)	X (X = MPC@4 ≤ 5 μg/mL)	X (X = MPC@4 ≤ 5 μg/mL)	X (X = MPC@1 ≤ 5 μg/mL)	X (X = MPC@4 ≤ 5 μg/mL)	X (X = MPC@4 ≤ 5 μg/mL)	X (X = MPC@4 ≤ 5 μg/mL)	X (X = MPC@4 ≤ 5 μg/mL)	X (X = MPC@4 ≤ 5 μg/mL)	X (X = MPC@4 ≤ 5 μg/mL)	X (X = MPC@4 ≤ 5 μg/mL)	X (X = MPC@4 ≤ 5 μg/mL)
O=C(O)c1c(OCCF)ccc2c1OB(O)C1CC21 (stereo not drawn) [Compound 17, 5-(2-fluoroethoxy)-2,2-dihydroxy-1a,7b-dihydro-1H-cyclopropa[c][1,2]benzoxaborinine-4-carboxylic acid]	X (X = MPC@4 ≤ 5 μg/mL)	X (X = MPC@4 ≤ 5 μg/mL)	X (X = MPC@4 ≤ 5 μg/mL)	X (X = MPC@1 ≤ 5 μg/mL)	X (X = MPC@4 ≤ 5 μg/mL)	X (X = MPC@4 ≤ 5 μg/mL)	X (X = MPC@4 ≤ 5 μg/mL)	X (X = MPC@4 ≤ 5 μg/mL)	X (X = MPC@4 ≤ 5 μg/mL)	X (X = MPC@4 ≤ 5 μg/mL)	Y (Y = 5 μg/mL < MPC@4 ≤ 20 μg/mL)	X (X = MPC@4 ≤ 5 μg/mL)
O=C(O)c1cccc2c1OB(O)[C@H]1C[C@@H]21 [Compound 18, (1aS,7bR)-2,2-dihydroxy-1a,7b-dihydro-1H-cyclopropa[c][1,2]benzoxaborinine-4-carboxylic acid]	X (X = MPC@4 ≤ 5 μg/mL)	Y (Y = 5 μg/mL < MPC@4 ≤ 20 μg/mL)	X (X = MPC@4 ≤ 5 μg/mL)	X (X = MPC@1 ≤ 5 μg/mL)	X (X = MPC@4 ≤ 5 μg/mL)	X (X = MPC@4 ≤ 5 μg/mL)	X (X = MPC@4 ≤ 5 μg/mL)	X (X = MPC@4 ≤ 5 μg/mL)	Y (Y = 5 μg/mL < MPC@4 ≤ 20 μg/mL)	Y (Y = 5 μg/mL < MPC@4 ≤ 20 μg/mL)	Y (Y = 5 μg/mL < MPC@4 ≤ 20 μg/mL)	X (X = MPC@4 ≤ 5 μg/mL)
O=C(O)c1c(F)c(F)cc2c1OB(O)C1CC21 (stereo not drawn) [Compound 19, 5,6-difluoro-2,2-dihydroxy-1a,7b-dihydro-1H-cyclopropa[c][1,2]benzoxaborinine-4-carboxylic acid]	X (X = MPC@4 ≤ 5 μg/mL)	X (X = MPC@4 ≤ 5 μg/mL)	X (X = MPC@4 ≤ 5 μg/mL)	X (X = MPC@1 ≤ 5 μg/mL)	X (X = MPC@4 ≤ 5 μg/mL)	X (X = MPC@4 ≤ 5 μg/mL)	X (X = MPC@4 ≤ 5 μg/mL)	X (X = MPC@4 ≤ 5 μg/mL)	X (X = MPC@4 ≤ 5 μg/mL)	X (X = MPC@4 ≤ 5 μg/mL)	X (X = MPC@4 ≤ 5 μg/mL)	X (X = MPC@4 ≤ 5 μg/mL)
O=C(O)c1nccc2c1OB(O)[C@H]1C[C@@H]21 [Compound 20, (1aS,7bR)-2-hydroxy-1a,7b-dihydro-1H-cyclopropa[6,7]oxaborinino[2,3-c]pyridine-4-carboxylic acid]	Y (Y = 5 μg/mL < MPC@4 ≤ 20 μg/mL)	Z (Z = MPC@4 > 20 μg/mL)	Y (Y = 5 μg/mL < MPC@4 ≤ 20 μg/mL)	Y (Y = 5 μg/mL < MPC@1 ≤ 20 μg/mL)	Y (Y = 5 μg/mL < MPC@4 ≤ 20 μg/mL)	Y (Y = 5 μg/mL < MPC@4 ≤ 20 μg/mL)	X (X = MPC@4 ≤ 5 μg/mL)	X (X = MPC@4 ≤ 5 μg/mL)	Z (Z = MPC@4 > 20 μg/mL)	Z (Z = MPC@4 > 20 μg/mL)	Z (Z = MPC@4 > 20 μg/mL)	Y (Y = 5 μg/mL < MPC@4 ≤ 20 μg/mL)
O=C(O)c1nccc2c1OB(O)[C@@H]1C[C@H]21 [Compound 21, (1aR,7bS)-2-hydroxy-1a,7b-dihydro-1H-cyclopropa[6,7]oxaborinino[2,3-c]pyridine-4-carboxylic acid]	X (X = MPC@4 ≤ 5 μg/mL)	X (X = MPC@4 ≤ 5 μg/mL)	X (X = MPC@4 ≤ 5 μg/mL)	X (X = MPC@1 ≤ 5 μg/mL)	X (X = MPC@4 ≤ 5 μg/mL)	X (X = MPC@4 ≤ 5 μg/mL)	X (X = MPC@4 ≤ 5 μg/mL)	X (X = MPC@4 ≤ 5 μg/mL)	X (X = MPC@4 ≤ 5 μg/mL)	X (X = MPC@4 ≤ 5 μg/mL)	X (X = MPC@4 ≤ 5 μg/mL)	X (X = MPC@4 ≤ 5 μg/mL)
COc1ccc2c(c1C(=O)O)OB(O)C1(CO)CC21 (stereo not drawn) [Compound 22, 2,2-dihydroxy-1a-(hydroxymethyl)-5-methoxy-1,7b-dihydrocyclopropa[c][1,2]benzoxaborinine-4-carboxylic acid]	Y (Y = 5 μg/mL < MPC@4 ≤ 20 μg/mL)	Y (Y = 5 μg/mL < MPC@4 ≤ 20 μg/mL)	X (X = MPC@4 ≤ 5 μg/mL)	X (X = MPC@1 ≤ 5 μg/mL)	Y (Y = 5 μg/mL < MPC@4 ≤ 20 μg/mL)	Y (Y = 5 μg/mL < MPC@4 ≤ 20 μg/mL)	X (X = MPC@4 ≤ 5 μg/mL)	X (X = MPC@4 ≤ 5 μg/mL)	Y (Y = 5 μg/mL < MPC@4 ≤ 20 μg/mL)	Y (Y = 5 μg/mL < MPC@4 ≤ 20 μg/mL)	Y (Y = 5 μg/mL < MPC@4 ≤ 20 μg/mL)	Y (Y = 5 μg/mL < MPC@4 ≤ 20 μg/mL)
